The source of these data is PMC4336329 (PLoS ONE, 2015).

Molecules are shown by their SMILES. Among all 310,000 compounds or so, about 2,200 (0.71%) showed an effect of 50% or more. Effects have a minus sign here. This is one part of the list.

In the test the target is human ether-à-go-go-related gene (hERG) potassium channel (human, UniProt Q12809). Put plainly: primary screen, population patch clamp on CHO cells stably expressing hERG.
Sequence of human ether-à-go-go-related gene (hERG) potassium channel (Q12809 whole entry, looked up): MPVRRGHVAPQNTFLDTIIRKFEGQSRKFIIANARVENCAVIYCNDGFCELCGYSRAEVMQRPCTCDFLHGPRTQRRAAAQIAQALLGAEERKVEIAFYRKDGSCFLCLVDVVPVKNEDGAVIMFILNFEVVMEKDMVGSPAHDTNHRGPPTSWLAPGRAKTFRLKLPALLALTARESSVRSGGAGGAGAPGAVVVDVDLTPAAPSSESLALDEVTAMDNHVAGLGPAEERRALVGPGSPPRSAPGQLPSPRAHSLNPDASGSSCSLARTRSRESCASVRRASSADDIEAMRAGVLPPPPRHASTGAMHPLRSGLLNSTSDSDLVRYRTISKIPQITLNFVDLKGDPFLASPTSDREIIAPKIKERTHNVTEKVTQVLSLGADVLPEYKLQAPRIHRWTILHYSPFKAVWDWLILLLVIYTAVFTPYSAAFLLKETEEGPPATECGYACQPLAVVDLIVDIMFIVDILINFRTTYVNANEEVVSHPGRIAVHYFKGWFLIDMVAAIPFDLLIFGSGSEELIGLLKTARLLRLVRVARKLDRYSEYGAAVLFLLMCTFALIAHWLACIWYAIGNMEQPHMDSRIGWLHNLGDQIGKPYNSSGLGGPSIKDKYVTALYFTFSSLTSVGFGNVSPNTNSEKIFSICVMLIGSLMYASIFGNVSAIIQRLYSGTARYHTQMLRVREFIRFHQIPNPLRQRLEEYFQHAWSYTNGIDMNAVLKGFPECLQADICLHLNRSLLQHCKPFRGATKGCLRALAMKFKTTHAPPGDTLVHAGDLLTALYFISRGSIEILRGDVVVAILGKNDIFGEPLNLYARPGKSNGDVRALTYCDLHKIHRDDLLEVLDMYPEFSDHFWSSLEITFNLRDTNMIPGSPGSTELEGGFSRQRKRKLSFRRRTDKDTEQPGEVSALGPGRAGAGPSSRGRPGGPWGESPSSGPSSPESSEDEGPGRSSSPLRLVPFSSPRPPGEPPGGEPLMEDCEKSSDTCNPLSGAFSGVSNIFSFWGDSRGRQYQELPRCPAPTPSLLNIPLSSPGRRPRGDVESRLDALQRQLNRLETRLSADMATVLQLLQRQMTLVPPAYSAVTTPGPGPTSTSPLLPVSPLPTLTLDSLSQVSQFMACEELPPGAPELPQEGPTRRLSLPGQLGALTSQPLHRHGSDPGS
In the case of `Cc1c(C(=O)NC(C)CCc2ccccc2)cccc1[N+](=O)[O-]` (stereo not drawn), the “hERG current change (%, negative = inhibition) at 1uM” value is recorded as 0.978%.

As for `CCOc1ccc(N/C=C/C(=O)c2ccc(OC)c(OC)c2)cc1`, the “hERG current change (%, negative = inhibition) at 1uM” value turned out to be 15.1%.

For the compound `COc1ccccc1CN1CCC(n2nccc2NC(=O)CCc2ccccc2)CC1`, the “hERG current change (%, negative = inhibition) at 1uM” value is recorded as 7.89%.

Turning to `CC1CC(NC(=O)Cc2ccc(Br)cc2)CC(C)(C)C1` (stereo not drawn), the “hERG current change (%, negative = inhibition) at 1uM” value is 12.7%.

As for `Cc1ccc(-c2c[n+]3c(n2-c2ccccc2)CCC3)cc1.[Br-]`, the “hERG current change (%, negative = inhibition) at 1uM” value came out at 1.57%.

Take `Cc1sc(NC(=O)Cc2ccc3c(c2)OCO3)nc1-c1ccc2c(c1)CCN2C(=O)c1cccc(F)c1`: the “hERG current change (%, negative = inhibition) at 1uM” value is given as 4.7%.

For the compound `COc1ccc(C(=O)NC(C(=O)NCC(=O)Nc2c(C)cccc2C)C(C)C)cc1` (stereo not drawn), the “hERG current change (%, negative = inhibition) at 1uM” value was 9.46%.

`CCCCC(=O)NC(=S)Nc1ccc(Cl)c(C(=O)O)c1`: the “hERG current change (%, negative = inhibition) at 1uM” value came to 13.4%.

`Cn1cnnc1Sc1cc(N2CCN(S(=O)(=O)c3ccc(Cl)c(Cl)c3)CC2)ccc1[N+](=O)[O-]`: the “hERG current change (%, negative = inhibition) at 1uM” value is 3.88%.

In the case of `Cc1cc(=O)oc2ccc(OCc3ccccc3)cc12`, the “hERG current change (%, negative = inhibition) at 1uM” value stood at 6.69%.

In the case of `CCOC(=O)C(NC(=O)c1ccccc1)(N1CCCC1=O)C(F)(F)F` (stereo not drawn), the “hERG current change (%, negative = inhibition) at 1uM” value turned out to be 11%.

Consider `O=C(O)c1ccc(CSCc2ccccc2F)o1`, for which the “hERG current change (%, negative = inhibition) at 1uM” value was 3.34%.

Consider `CN(c1ccccc1)S(=O)(=O)c1cc(C(=O)Nc2nc3ccccc3[nH]2)ccc1Cl`, for which the “hERG current change (%, negative = inhibition) at 1uM” value stood at 10.4%.

For `O=C(N/N=C/c1cccs1)c1c[nH]c2ccccc12`, the “hERG current change (%, negative = inhibition) at 1uM” value stood at 12.9%.

For `CC(NC(=O)c1ccc(F)cc1F)C1CC2CCC1C2` (stereo not drawn), the “hERG current change (%, negative = inhibition) at 1uM” value is 6.95%.

`Cc1[nH]ccc(=O)c1OCc1c(F)cccc1Cl`: the “hERG current change (%, negative = inhibition) at 1uM” value stood at 12.8%.

For `COC(=O)c1cc(=O)nc2sc3cc(OC)ccc3n12`, the “hERG current change (%, negative = inhibition) at 1uM” value is given as 8.89%.

Regarding `c1ccc2oc(NC3=NCN(CC4CCCO4)CN3)nc2c1` (stereo not drawn), the “hERG current change (%, negative = inhibition) at 1uM” value turned out to be 7.11%.

For `C=CCc1cc(C=O)cc(OC)c1OCc1ccc(C(=O)O)cc1`, the “hERG current change (%, negative = inhibition) at 1uM” value is 2.2%.

For `O=C(COC(=O)c1ccc([N+](=O)[O-])cc1Cl)NCc1ccco1`, the “hERG current change (%, negative = inhibition) at 1uM” value is given as 10.1%.

As for `COc1ccc(C(CC(=O)O)NC(=O)COc2ccccc2)cc1OC` (stereo not drawn), the “hERG current change (%, negative = inhibition) at 1uM” value was determined as 14%.

Consider `O=C(c1ccccc1[N+](=O)[O-])N(CCc1ccccc1)Cc1ccccc1`, for which the “hERG current change (%, negative = inhibition) at 1uM” value worked out at 12.3%.

With `Cc1cc(Nc2ccc(Cl)cc2)n(-c2ccccc2)n1`, the “hERG current change (%, negative = inhibition) at 1uM” value came out at 5.52%.

Turning to `COc1ccc(CNC(=O)CN(c2ccc(OC)c(Cl)c2)S(=O)(=O)c2ccc(C)cc2)cc1`, the “hERG current change (%, negative = inhibition) at 1uM” value stood at 15.9%.

Turning to `Cn1cccc1C(=O)c1cccc([N+](=O)[O-])c1`, the “hERG current change (%, negative = inhibition) at 1uM” value is -13.3%.

`Cc1ncoc1C(=O)NCc1ccccc1Cl`: the “hERG current change (%, negative = inhibition) at 1uM” value is -2.35%.

Regarding `Cc1sc2nc(CN3CCOCC3)nc(NS(=O)(=O)c3cc(Cl)ccc3Cl)c2c1C`, the “hERG current change (%, negative = inhibition) at 1uM” value is 2.33%.

As to `CCOC(=O)N1CCN(Cc2nc3cc(NC(=O)CC(C)C)ccc3n2C)CC1`, the “hERG current change (%, negative = inhibition) at 1uM” value was 13.4%.

Turning to `CC(C)c1ccc(OCC(=O)NC2CCCC2)cc1`, the “hERG current change (%, negative = inhibition) at 1uM” value is given as -1.14%.

Take `O=C(CSc1n[nH]c(-c2ccncc2)n1)Nc1ccccc1C(F)(F)F`: the “hERG current change (%, negative = inhibition) at 1uM” value was 11.2%.

In the case of `CCn1c(COc2ccc(C(C)C)cc2)nnc1SCC(=O)Nc1nccs1`, the “hERG current change (%, negative = inhibition) at 1uM” value was -8.81%.

With `Cc1ccc2c(C)c(C(=O)N(Cc3ccccc3)C3CCS(=O)(=O)C3)oc2c1` (stereo not drawn), the “hERG current change (%, negative = inhibition) at 1uM” value is on record as 13.5%.

As to `Cc1ccccc1-c1nc(CN2CCC(C(=O)NCCN3CCOCC3)CC2)c(C)o1`, the “hERG current change (%, negative = inhibition) at 1uM” value was 0.693%.

Regarding `Cc1cccc(-n2c(CNC(=O)c3ccc(S(=O)(=O)N(C)C)cc3)nnc2SCC(=O)Nc2ccc(F)cc2)c1`, the “hERG current change (%, negative = inhibition) at 1uM” value is -1.8%.

With `Cc1ccc(N(C(C)C(=O)N2CCOCC2)S(C)(=O)=O)cc1C` (stereo not drawn), the “hERG current change (%, negative = inhibition) at 1uM” value is -6.27%.

With `Cc1nnc(SCC(=O)Nc2cc(S(=O)(=O)N3CCCC3)ccc2Cl)n1C1CC1`, the “hERG current change (%, negative = inhibition) at 1uM” value was 1.18%.

Turning to `CC(C)(C)c1ccc(C(=O)NC2CCN(Cc3ccccc3)CC2)cc1`, the “hERG current change (%, negative = inhibition) at 1uM” value is -4.07%.

As for `S=C(NCc1ccco1)Nc1ccc(Cl)cn1`, the “hERG current change (%, negative = inhibition) at 1uM” value was -0.704%.

As for `Cc1ccc2c(c1)-c1c(cnn1CC(=O)Nc1ccccc1N1CCN(C)CC1)CO2`, the “hERG current change (%, negative = inhibition) at 1uM” value is -0.708%.

Regarding `Cc1cc(NC(=O)CCC(=O)N(CC(=O)NC2CCCC2)Cc2cccs2)no1`, the “hERG current change (%, negative = inhibition) at 1uM” value is given as 13.1%.

For `CCN1C(=O)[C@H]2[C@@H](c3ccc(-c4ccc(OC)cc4)cc3)N[C@@](Cc3ccccc3)(C(=O)OC)[C@H]2C1=O.O=C(O)C(F)(F)F`, the “hERG current change (%, negative = inhibition) at 1uM” value turned out to be 2.58%.

As for `COc1cccc(-c2nc(CS(=O)(=O)CC(=O)Nc3c(C)cccc3C)c(C)o2)c1`, the “hERG current change (%, negative = inhibition) at 1uM” value worked out at 18.2%.
